According to patent publication US20040009890A1, “Broad spectrum inhibitors” (priority 2002, published 2004):

Biological target: wild type and V82F/I84V mutant HIV-1 protease
Test: Inhibition (Ki) of wild type and V82F/I84V mutant HIV protease
Format: biochemical
Settings: wild type vs V82F and 184V active site mutant HIV protease

SMILES | Ki values for wild type and mutant enzymes (effect of active site mutations)
CC(C)CN(C[C@@H](O)[C@H](Cc1ccccc1)NC(=O)O[C@H]1CCOC1)S(=O)(=O)c1ccc(N)cc1 [Compound 2, Amprenavir] | dramatically affected by the active site mutations
COc1ccc(S(=O)(=O)N(CC(C)C)C[C@@H](O)[C@H](Cc2ccccc2)NC(=O)O[C@H]2CO[C@H]3OCC[C@H]32)cc1 [Compound 1] | Ki values for wild type and mutant enzymes are similar
